Measured values published in PubChem BioAssay AID686979 (National Center for Advancing Translational Sciences (NCATS), 2013).
The campaign covered roughly 420,000 compounds. About 50,000 (12%) were called active. The inconclusive results got no clear call from the source; some entries with a clear call stand among them for comparison. The call rests on the fitted dose curve; in most records, active means well fitted inhibition curve with a large enough effect; inconclusive means small, poorly fitted or top-dose-only effect; inactive means flat fitted curve, though single readings scatter. Potencies of inconclusive entries are left out as doubtful fits.

Experiment: qHTS for Inhibitors of human tyrosyl-DNA phosphodiesterase 1 (TDP1): qHTS in cells in presence of CPT; further: nearly all actives have a fitted effect of over 55% in size
Conditions: chicken DT40 Tdp1-/-;hTDP1 cells + 20 nM CPT, ATP luminescence, 48 h; activity change, negative = growth inhibition: at 46.2 µM (top of the series) unless noted
Outline: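 Chicken DT40 Tdp1-/- cells complemented with human TDP1, 400 cells/well, exposed to compounds plus 20 nM camptothecin for at least 48 h at 37 C; viability read as ATP content by CellTiter-Glo luminescence.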
On the % scale 0 is the no-effect control and ±100 the full control effect; potency means the concentration at half of the fitted maximal effect; tags describe the fitted curve by direction and shape.

Compound	Potency	activity change, negative = growth inhibition
COc1cc(OC)c(OC)cc1CN1CCc2nc(N3CCN(C)CC3)ncc2C1	inactive	
Cc1cc(C)cc(N2C(=O)N(Cc3cc(=O)n4ccccc4n3)c3ccccc3S2(=O)=O)c1	inconclusive [inhibitor, single point]	
Cc1ccc(CN2CCN(Cc3cn[nH]c3-c3cccc(F)c3)CC2CCO)o1 (centres undefined)	inactive	
NC(=O)c1ccccc1NC(=O)CS(=O)(=O)Cc1ccccc1	inconclusive [inhibitor, single point]	
CC(C)c1ccc(/C=C2\SC(N3CCCC3)=NC2=O)cc1	inconclusive [inhibitor, single point]	
CCOC(=O)/C=C1\SCC(=O)N1CC(=O)NC(c1ccccc1)c1ccccc1	inconclusive [inhibitor, single point]	
COc1cc(C(=O)Oc2cccc(/C=N/NC(=O)c3cc(C)[nH]n3)c2)cc(OC)c1OC	inconclusive [inhibitor, single point]	
CC(C)(CC(=O)O)CC(=O)Nc1ccc2c(c1)ncn2CCc1ccccc1	inactive	
COc1ccc(-n2nc(C(=O)NCC(=O)N3CCN(c4ccccc4F)CC3)c3ccccc3c2=O)cc1	active: 18.4 µM	
CC1=C(C(=O)OCc2ccccc2)C(c2ccc(Br)cc2)NC(=O)N1CCCCCC(=O)O (centres undefined)	inactive	
NC(=O)CSc1nc(C23CC4CC(CC(C4)C2)C3)nc2ccccc12	inconclusive [inhibitor, single point]	
COc1ccc(C(=O)n2nnc3ccccc32)cc1OC	inconclusive [inhibitor, single point]	
CCOC(=O)c1c(-c2ccccc2)oc2ccc(OCC(=O)NN)cc12	inactive	
COc1ccc(N2CCN(c3nc4ccc(C(=O)c5ccccc5)cc4n4cnnc34)CC2)cc1	active: 16.4 µM	
Cc1ccc(S(=O)(=O)c2nnn3c2nc(NCCCN2CCCC2=O)c2ccccc23)cc1C	inconclusive [inhibitor, single point]	
Cc1cccc2c1-c1sc(C(=O)NCCCN3CCN(c4ccccc4F)CC3)cc1CO2	inconclusive [inhibitor, single point]	
CCOC(=O)c1c(C)[nH]c(C(=O)OCC(O)=C(C#N)c2nc3ccccc3[nH]2)c1C	inconclusive [inhibitor, single point]	
Brc1cc2c(cc1Br)OCCOCCOCCOCCO2	active: 14.6 µM	
CC(C)Cn1c(N)c(C(=O)COC(=O)c2ccc3c(c2)OCCO3)c(=O)n(C)c1=O	active: 18.4 µM	
CCOC(=O)CC1CCCCN1C(=O)c1ccc2oc(CCc3ccccc3)nc2c1 (centres undefined)	active: 20.6 µM	
Cc1ccc(NC(=O)c2oc3ccc(S(=O)(=O)N4CCOCC4)cc3c2C)c(C)c1	inconclusive [inhibitor, partial curve, poor fit]	
O=C1C=C(C#Cc2ccc(Oc3ccccc3)cc2)C[C@@H](c2ccc(F)cc2)C1	active: 16.4 µM	

Compound	Potency	activity change, negative = growth inhibition
CN1CCN(NC(=O)Nc2cc(Cl)cc(Cl)c2)CC1	inconclusive [inhibitor, partial curve, poor fit]	
COc1ccc(S(=O)(=O)N2CCCC2C(=O)Nc2ccc(O)cc2)cc1 (centres undefined)	inconclusive [inhibitor, single point]	
COc1ccc(-n2c(-c3ccccc3)c[n+]3c2CCC3)cc1	active: 2.06 µM	
CCNc1nc(Cl)nc(NCCOc2ccc(C)cc2)n1	inconclusive [inhibitor, partial curve, poor fit]	
CCCCNC(=O)Nc1nc2ccccc2s1		inconclusive: -30.5% [inhibitor]
Cc1ccc(NS(=O)(=O)c2ccc(C(C)C)cc2)cc1S(=O)(=O)N1CCOCC1	inconclusive [inhibitor, single point]	
COc1ccc(Cl)cc1C(=O)Nc1ccccc1N1CCCCC1	active: 18.4 µM	
O=C(CCn1nc(-c2ccccc2)c2ccccc2c1=O)N1CCN(c2ccccc2)CC1	active: 16.4 µM	
CCCCN(CC)C(=O)c1c[nH]c2ccc(S(=O)(=O)N(C)c3ccc(Cl)cc3)cc2c1=O	inconclusive [inhibitor, single point]	
Cc1cc(S(=O)(=O)N(Cc2ccc(C(C)C)cc2)CC2CCCO2)ccc1-n1cnnn1 (centres undefined)	inconclusive [inhibitor, single point]	
O=c1c(C=NCc2ccccc2)c(NCc2ccccc2)nc2ccccn12	inconclusive [inhibitor, single point]	
C[C@H]1CN=C(Nc2ccccc2)N1CCC1CCCC1	inconclusive [inhibitor, single point]	
CC(=O)NCCC(=O)N1CCCC(C(=O)c2ccc3c4c(cccc24)CC3)C1 (centres undefined)	inconclusive [inhibitor, single point]	
CN(CC(=O)Nc1c(Cl)cccc1Cl)C(=O)c1ccc(-n2cncn2)c([N+](=O)[O-])c1	inactive	
COc1cc(NC(=O)N2CCSc3ccccc32)cc(OC)c1OC	inconclusive [inhibitor, single point]	
CCCN(CCC)c1nc(-c2ccccn2)nc2ccccc12	active: 1.3 µM	
O=C(/C=C/Nc1ccccc1O)c1ccco1	inconclusive [inhibitor, partial curve]	
Cc1cc(C)c2c(N)c(-c3nnc(SCc4ccc(Cl)cc4)n3C)sc2n1	inactive	
Cc1ccccc1-c1nc(CN2CCN(C(=O)c3ccco3)CC2)c(C)o1		inconclusive: -31.1% [inhibitor]
CC(C)Cn1c(N)c(C(=O)COC(=O)c2ccc([N+](=O)[O-])o2)c(=O)n(C)c1=O	inconclusive [inhibitor, partial curve]	
Cc1cc(-c2nnc(-c3ccccc3)c(-c3ccccc3)n2)c(C)o1	inconclusive [inhibitor, single point]	
Cc1onc(-c2ccccc2Cl)c1C(=O)N1CCN(S(=O)(=O)c2ccc(F)c(F)c2)CC1	inconclusive [inhibitor, single point]	
